This is one part of the list. The list includes weakly bound sequences.
target: T1, MBP-FoxP3dN (UniProt Q99JB6); assay: PD-seq (MBP pull-down with sequencing); settings: 20 mM Tris-HCl pH 7.5, 100 mM NaCl, 1.5 mM MgCl2, 0.4 uM protein, 0.1 uM dsDNA library, 30 min, room temperature, amylose pull-down; high values mean tight binding; double strand, one strand shown
T1 sequence: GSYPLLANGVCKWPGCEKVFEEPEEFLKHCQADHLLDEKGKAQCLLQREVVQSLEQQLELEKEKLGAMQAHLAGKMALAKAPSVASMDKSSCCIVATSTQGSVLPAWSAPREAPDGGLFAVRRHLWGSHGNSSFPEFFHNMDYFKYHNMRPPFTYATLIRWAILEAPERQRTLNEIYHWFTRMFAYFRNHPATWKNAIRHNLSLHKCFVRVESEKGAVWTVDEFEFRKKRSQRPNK

| Sequence | binding signal (RPM ratio (pull-down/input)) |
| --- | --- |
| GATGATTGTTCTCCCAGCTGATGAATTTAGGTCCTCGAGTAAACAAATTTTCCTAATCTTTCTGTTCAAGCGCCATCTAC | 0.64 |
| GATGATTGTTCTCCCAGCTGATGAATTCGGAGGCTCGAGTAAACAAATTTTCCTAATCTTTCTGTTCAAGCGCCATCTAC | 0.399 |
| GATGATTGTTCTCCCAGCTGATGAATTAGTATTGTCGAGTAAACAAATTTTCCTAATCTTTCTGTTCAAGCGCCATCTAC | 3.56 |
| GATGATTGTTCTCCCAGCTGATGAATTCCTGGCTTCGAGTAAACAAATTTTCCTAATCTTTCTGTTCAAGCGCCATCTAC | 0.243 |
| GATGATTGTTCTCCCAGCTGATGAATTTTTTGTCTCGAGTAAACAAATTTTCCTAATCTTTCTGTTCAAGCGCCATCTAC | 0.367 |
| GATGATTGTTCTCCCAGCTGATGAATTTCAGTGCTCGAGTAAACAAATTTTCCTAATCTTTCTGTTCAAGCGCCATCTAC | 0.505 |
| GATGATTGTTCTCCCAGCTGATGAATTGCCTTTATCGAGTAAACAAATTTTCCTAATCTTTCTGTTCAAGCGCCATCTAC | 1.14 |
| GATGATTGTTCTCCCAGCTGATGAATTCCCTCCGTCGAGTAAACAAATTTTCCTAATCTTTCTGTTCAAGCGCCATCTAC | 0.215 |
| GATGATTGTTCTCCCAGCTGATGAATTACATAAGTCGAGTAAACAAATTTTCCTAATCTTTCTGTTCAAGCGCCATCTAC | 0.353 |
| GATGATTGTTCTCCCAGCTGATGAATTGCGCTTCTCGAGTAAACAAATTTTCCTAATCTTTCTGTTCAAGCGCCATCTAC | 2.93 |
| GATGATTGTTCTCCCAGCTGATGAATTAGTCCAGTCGAGTAAACAAATTTTCCTAATCTTTCTGTTCAAGCGCCATCTAC | 0.27 |
| GATGATTGTTCTCCCAGCTGATGAATTACCGTAATCGAGTAAACAAATTTTCCTAATCTTTCTGTTCAAGCGCCATCTAC | 0.591 |
| GATGATTGTTCTCCCAGCTGATGAATTTTTACTATCGAGTAAACAAATTTTCCTAATCTTTCTGTTCAAGCGCCATCTAC | 0.364 |
| GATGATTGTTCTCCCAGCTGATGAATTTGCGGCCTCGAGTAAACAAATTTTCCTAATCTTTCTGTTCAAGCGCCATCTAC | 1.11 |
| GATGATTGTTCTCCCAGCTGATGAATTAGGATTTTCGAGTAAACAAATTTTCCTAATCTTTCTGTTCAAGCGCCATCTAC | 0.445 |
| GATGATTGTTCTCCCAGCTGATGAATTATGGAACTCGAGTAAACAAATTTTCCTAATCTTTCTGTTCAAGCGCCATCTAC | 0.315 |

| Sequence | binding signal (RPM ratio (pull-down/input)) |
| --- | --- |
| GATGATTGTTCTCCCAGCTGATGAATTGCAAAAGTCGAGTAAACAAATTTTCCTAATCTTTCTGTTCAAGCGCCATCTAC | 0.476 |
| GATGATTGTTCTCCCAGCTGATGAATTACCAGATTCGAGTAAACAAATTTTCCTAATCTTTCTGTTCAAGCGCCATCTAC | 0.275 |
| GATGATTGTTCTCCCAGCTGATGAATTAATTTAGTCGAGTAAACAAATTTTCCTAATCTTTCTGTTCAAGCGCCATCTAC | 1.73 |
| GATGATTGTTCTCCCAGCTGATGAATTATGTTCGTCGAGTAAACAAATTTTCCTAATCTTTCTGTTCAAGCGCCATCTAC | 1.13 |
| GATGATTGTTCTCCCAGCTGATGAATTACAGAGCTCGAGTAAACAAATTTTCCTAATCTTTCTGTTCAAGCGCCATCTAC | 0.252 |
| GATGATTGTTCTCCCAGCTGATGAATTATTGGGGTCGAGTAAACAAATTTTCCTAATCTTTCTGTTCAAGCGCCATCTAC | 0.552 |
| GATGATTGTTCTCCCAGCTGATGAATTGACGGTCTCGAGTAAACAAATTTTCCTAATCTTTCTGTTCAAGCGCCATCTAC | 0.417 |
| GATGATTGTTCTCCCAGCTGATGAATTAAACCATTCGAGTAAACAAATTTTCCTAATCTTTCTGTTCAAGCGCCATCTAC | 0.478 |
| GATGATTGTTCTCCCAGCTGATGAATTGTGCCCCTCGAGTAAACAAATTTTCCTAATCTTTCTGTTCAAGCGCCATCTAC | 2.74 |
| GATGATTGTTCTCCCAGCTGATGAATTGCACTGGTCGAGTAAACAAATTTTCCTAATCTTTCTGTTCAAGCGCCATCTAC | 0.65 |
| GATGATTGTTCTCCCAGCTGATGAATTCCAGCTCTCGAGTAAACAAATTTTCCTAATCTTTCTGTTCAAGCGCCATCTAC | 0.322 |
| GATGATTGTTCTCCCAGCTGATGAATTATATTCCTCGAGTAAACAAATTTTCCTAATCTTTCTGTTCAAGCGCCATCTAC | 0.694 |
| GATGATTGTTCTCCCAGCTGATGAATTAATAACCTCGAGTAAACAAATTTTCCTAATCTTTCTGTTCAAGCGCCATCTAC | 0.362 |
| GATGATTGTTCTCCCAGCTGATGAATTCTGTTACTCGAGTAAACAAATTTTCCTAATCTTTCTGTTCAAGCGCCATCTAC | 2.49 |
| GATGATTGTTCTCCCAGCTGATGAATTGGCATTTTCGAGTAAACAAATTTTCCTAATCTTTCTGTTCAAGCGCCATCTAC | 3.38 |
| GATGATTGTTCTCCCAGCTGATGAATTAAATATCTCGAGTAAACAAATTTTCCTAATCTTTCTGTTCAAGCGCCATCTAC | 0.602 |

Reference: publication PMC12820563
